Each structure is given as a SMILES string. Hit rate of the full screen: of about 43,000 compounds, about 200 (0.47%) were called active. Another 12% or so got no clear call; they are omitted. Calls follow the shape of the dose curve; as a rule, active = well fitted cell-killing curve with a large enough effect; inconclusive = small, poorly fitted or top-dose-only effect, or effect the other way; inactive = flat fitted curve, though single readings scatter. The list shows a part of the results.
% is scaled to controls: 0 for no effect and ±100 for the full control effect.

The nature of this experiment: Cell viability qHTS assay in S16 Pmp22-F2sN cells. Also: nearly all actives have a fitted effect of over 65% in size. The conditions noted are these: S16 Pmp22-F2sN Schwann cells (luciferase reporters placed in the Pmp22 gene) viability, CellTiter-Glo, 24 h; series mostly up to 57.5 µM; activity change, negative = cytotoxicity: at the top concentration. In a few lines: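 CellTiter-Glo counter-screen, qHTS, 1536-well. Cells: S16(c9) Pmp22-F2sN, 500-1,000/well in DMEM + 10% FBS. Cpd 23 nL pin transfer, 24 h, 37C/5% CO2. Read: luminescence, CCD imager.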
For the molecule `COc1ccc(CNC(=O)C2CCN(C(=O)N3CCOc4ccc(C)cc43)CC2)cc1`, the “activity change, negative = cytotoxicity” value is inactive: -17.2%.

On to `Cc1cccc(NC(=O)Cn2c(=O)n(Cc3nc(-c4ccccc4)no3)c(=O)c3ccccc32)c1`, for which the “activity change, negative = cytotoxicity” value was inactive: -18.6%.

`COC(=O)c1sccc1S(=O)(=O)N(CC(=O)NCc1ccc(F)cc1)c1ccccc1`: the “activity change, negative = cytotoxicity” value was inactive: 12.4%.

On to `Cc1cccc(-n2c(=O)c3c(c4cc(C)ccc4n3C)n(CC(=O)Nc3ccc(C)c(C)c3)c2=O)c1`, for which the “activity change, negative = cytotoxicity” value is inactive: 8.16%.

Turning to `CC(C)(C)NC(=O)Cn1cc(S(=O)(=O)Cc2ccccc2Cl)c2ccccc21`, the “activity change, negative = cytotoxicity” value is inactive: -1.17%.

Take `COc1ccccc1N1CCN(c2c3c(nc4nncn24)CCC3)CC1`: the “activity change, negative = cytotoxicity” value was inactive: -19.5%.

For the molecule `CC1CCN(S(=O)(=O)c2ccc3c(c2)N(CC(=O)N(C)Cc2ccccc2)C(=O)CO3)CC1`, the “activity change, negative = cytotoxicity” value is inactive: 3.84%.

For `Cn1cnc(S(=O)(=O)N2CCC(C(=O)Nc3ccc(OC(F)(F)F)cc3)CC2)c1`, the “activity change, negative = cytotoxicity” value is inactive: 4.44%.

Take `O=C(CCCc1nc(-c2ccc(Cl)cc2)no1)NCc1ccco1`: the “activity change, negative = cytotoxicity” value was inactive: 5.2%.

For `CCCCN1C(C(=O)c2ccccc2)=C(OC(=O)CC)c2ccccc2S1(=O)=O`, the “activity change, negative = cytotoxicity” value was inactive: -27.6%.

With `COc1cc(C2c3c(-c4ccccc4O)n[nH]c3C(=O)N2Cc2ccncc2)cc(OC)c1OC` (configuration not stated), the “activity change, negative = cytotoxicity” value is inactive: 5.56%.

As for `Cc1ccccc1CN1C(=O)C(O)(c2c[nH]c3ccccc23)c2cc(Cl)ccc21` (configuration not stated), the “activity change, negative = cytotoxicity” value is inactive: 1.33%.

As to `COc1cccc(CNC(=O)C2CCCN(c3nn4cc(-c5ccc(C)cc5)nc4s3)C2)c1` (configuration not stated), the “activity change, negative = cytotoxicity” value was inactive: 6.97%.

Turning to `O=c1c2sc3ccccc3c2n(Cc2cccc(Cl)c2)c(=O)n1Cc1ccc(F)cc1`, the “activity change, negative = cytotoxicity” value was inactive: 2.59%.

Take `O=C(c1ccc2c(c1)N(Cc1ccccc1)C(=O)c1ccccc1S2(=O)=O)N1CCC(Cc2ccccc2)CC1`: the “activity change, negative = cytotoxicity” value is inactive: 7.17%.

For `Cc1cc(C)c(NC(=O)Cn2nnc3sc4c(c3c2=O)CCC(C(C)(C)C)C4)c(C)c1` (configuration not stated), the “activity change, negative = cytotoxicity” value is inactive: 9.08%.

For `Cc1nnc(N2CCCC(C(=O)Nc3cc(F)ccc3F)C2)c2nn(-c3ccccc3)c(C)c12` (configuration not stated), the “activity change, negative = cytotoxicity” value was inactive: -2%.

Take `CC1CCN(c2nc3ccccc3nc2SCC(=O)Nc2ccccc2C(C)C)CC1`: the “activity change, negative = cytotoxicity” value is inactive: -3.29%.

Take `O=C(NC1(C(F)(F)F)N=C(c2ccccc2)N(Cc2ccccc2)C1=O)c1ccc(F)cc1` (configuration not stated): the “activity change, negative = cytotoxicity” value is inactive: -28.5%.

Regarding `CCOc1ccc(CCNC(=O)c2cc3n(n2)CCCN(Cc2ccc(C)cc2)C3=O)cc1OCC`, the “activity change, negative = cytotoxicity” value was inactive: -10.2%.

`Cc1cc(-c2ccc(C)c(S(=O)(=O)Nc3ccc(C)c(N(C)C)c3)c2)on1`: the “activity change, negative = cytotoxicity” value is inactive: -26%.

Regarding `O=C(CS(=O)(=O)c1cccc2nsnc12)N1CCN(c2ccc(F)cc2)CC1`, the “activity change, negative = cytotoxicity” value is inactive: -2.48%.

As to `CC(=O)c1ccc(NC(=O)Cn2c(=O)nc(-c3ccccc3)c3ccccc32)cc1`, the “activity change, negative = cytotoxicity” value was inactive: 4.66%.

Consider `COc1cc(NC(=O)COCc2cc(-c3ccc4c(c3)OCO4)on2)c(OC)cc1Cl`, for which the “activity change, negative = cytotoxicity” value is inactive: 7.36%.

As for `CCOc1ccc(C(=O)c2cn(CC(=O)Nc3ccc(C)c(Cl)c3)c3ccc(OCC)cc3c2=O)cc1`, the “activity change, negative = cytotoxicity” value was inactive: -2.54%.

Regarding `CCCCC(=O)OCc1cc(=O)n2nc(C3CC3)sc2n1`, the “activity change, negative = cytotoxicity” value is inactive: 29.9%.

Take `COc1ccc(-c2nc(CSCC(=O)NCCc3ccc(OC)c(OC)c3)c(C)o2)cc1`: the “activity change, negative = cytotoxicity” value is inactive: -23.5%.

With `Cc1sc(NC(=O)C2c3ccccc3Oc3ccccc32)c(C(=O)OC(C)C)c1C`, the “activity change, negative = cytotoxicity” value was inactive: 2.98%.

On to `CC(C)NC(=O)C1=CC(c2ccc3c(c2)OCO3)=NS(=O)(=O)N1C`, for which the “activity change, negative = cytotoxicity” value is inactive: -4.26%.

Turning to `COc1ccccc1CNC(=O)c1cc2cccc3c2n1CCS3`, the “activity change, negative = cytotoxicity” value was inactive: -0.124%.

Regarding `CCCSc1ncc(Cl)c(C(=O)NCc2ccc(C)cc2)n1`, the “activity change, negative = cytotoxicity” value was inactive: -1.02%.

For the molecule `COc1ccc(CNC(=O)CCS(=O)(=O)c2cc3c4c(c2)CCN4C(=O)CC3)cc1OC`, the “activity change, negative = cytotoxicity” value is inactive: -20.2%.

As for `Cc1c(C(=O)N2CCCC2)oc2c1-c1nn(CC(=O)NCc3ccccc3F)cc1CC2`, the “activity change, negative = cytotoxicity” value was inactive: -18.5%.

Regarding `COc1ccc(C2C(C(=O)Nc3cccnc3)=C(C)Nc3nc(-c4ccc(OC)c(OC)c4)nn32)cc1` (configuration not stated), the “activity change, negative = cytotoxicity” value is inactive: -5.73%.

Turning to `COc1ccc2c(c1)c(=O)c(S(=O)(=O)c1ccc(F)cc1)cn2CC(=O)Nc1ccc(C)cc1C`, the “activity change, negative = cytotoxicity” value is inactive: 13.5%.

For `COc1ccc(CN(C(=O)Nc2cc(C)ccc2C)C2CCN(C(C)=O)CC2)cc1`, the “activity change, negative = cytotoxicity” value was inactive: -3.29%.

For `COc1cc(NS(=O)(=O)c2ccc(NC(=O)COc3ccc(Cl)cc3Cl)cc2)nc(OC)n1`, the “activity change, negative = cytotoxicity” value was inactive: 18.8%.

On to `CCOc1cccc(CC(=O)NCc2ccc3c(c2)CCN3C(=O)c2cccc(C)c2)c1OCC`, for which the “activity change, negative = cytotoxicity” value was inactive: -25.5%.

Take `O=C(CCNS(=O)(=O)c1ccc(Br)s1)Nc1ccc(Br)cc1`: the “activity change, negative = cytotoxicity” value was inactive: 1.09%.

`Cc1ccc(CNCc2ccc3c(c2)n(C)c(=O)n3C)cc1`: the “activity change, negative = cytotoxicity” value is inactive: 2.64%.

`c1ccc(Nc2c(-c3ccccc3)nc3ncccn23)cc1`: the “activity change, negative = cytotoxicity” value was inactive: -0.276%.

Regarding `CCC(CC)C(=O)N1CCc2cc(OC)c(OC)cc2C1COc1ccc2c(C)cc(=O)oc2c1` (configuration not stated), the “activity change, negative = cytotoxicity” value was inactive: 3.22%.

Regarding `CCOc1ccc2nc(N(Cc3cccnc3)C(=O)c3ccco3)sc2c1`, the “activity change, negative = cytotoxicity” value was inactive: -10.4%.

Turning to `O=C(c1cc(S(=O)(=O)N2CCCC2)c[nH]1)N1CCN(c2cccc(Cl)c2)CC1`, the “activity change, negative = cytotoxicity” value is inactive: -8.62%.

Take `CCOc1ccccc1N(CC)C(=O)Cn1ncc2c1-c1ccccc1OC2`: the “activity change, negative = cytotoxicity” value was inactive: 3.31%.

As for `CCOc1ccc(NC(=O)CSc2nc(-c3ccccc3)c3cc(OCC)ccc3n2)cc1`, the “activity change, negative = cytotoxicity” value was inactive: 1.21%.

`COc1ccc(CNC(=O)c2cnc3sc4cc(OC)ccc4n3c2=O)cc1`: the “activity change, negative = cytotoxicity” value was inactive: 0.992%.
